Structures can show the parent of a compound that is named as a salt. Over roughly 2,000 compounds, “fractional viability relative to vehicle” has its median near 0.91; the lowest 2% begin near 0.045. Some of the results follow.
Tested on: TYKNU
Experiment: fractional viability relative to vehicle; TYKNU is a high-grade serous ovarian cancer line; higher = less growth inhibition
Details: 72 h
Outline: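 TYKNU control cells or lentiCRISPRv2 knockout derivatives were seeded at 500 cells per well into drug-stamped 384-well plates holding a ~2100-compound library at 2 or 10 μM, in duplicate. Cells were grown at 37 °C in 5% CO2 in RPMI 1640 with 10% FBS, and drug treatment lasted 72 h. Viability was read by Cell Titer Glo luminescence. Duplicate treatment wells were averaged and normalised to duplicate control wells from the same plate position.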

[1] = 2uM, genotype: DNM1L knockout (sgDNM1L #1)
[2] = 2uM, genotype: sgCTRLA1 (non-targeting control)
[3] = 10uM, genotype: DNM1L knockout (sgDNM1L #1)
[4] = 10uM, genotype: sgCTRLA1 (non-targeting control)

| SMILES | fractional viability [1] | fractional viability [2] | fractional viability [3] | fractional viability [4] |
| --- | --- | --- | --- | --- |
| CNC[C@H](O)[C@@H](O)[C@H](O)[C@H](O)CO [Meglumine] | 1.01 | 1.14 | 0.888 | 1.15 |
| COC(=O)Nc1ccc(-c2nc(N3CCOCC3)c3cnn(C4CCN(C(=O)OC)CC4)c3n2)cc1 | 0.495 | 0.467 | 0.312 | 0.267 |
| Cc1ccnc(NS(=O)(=O)c2ccc(N)cc2)n1 [Sulfamerazine] | 1.02 | 1.19 | 0.782 | 1.07 |
| NC(=O)OCC(COC(N)=O)c1ccccc1 [Felbamate] | 1.21 | 1.23 | 0.944 | 1.21 |
| CCC[S+]([O-])c1ccc2[nH]c(NC(=O)OC)nc2c1 (stereo unspecified) [Albendazole Oxide] | 1.04 | 0.909 | 0.505 | 0.562 |
| C/C(=C\C(=O)OCCCCCCCCC(=O)O)C[C@@H]1OC[C@H](C[C@@H]2O[C@H]2[C@@H](C)[C@H](C)O)[C@@H](O)[C@H]1O [Mupirocin] | 1.13 | 1.18 | 0.546 | 0.417 |
| COc1ccc(C2=N[C@@H](c3ccc(Cl)cc3)[C@@H](c3ccc(Cl)cc3)N2C(=O)N2CCNC(=O)C2)c(OC(C)C)c1 [Nutlin-3] | 0.557 | 0.851 | 0.272 | 0.386 |
| COc1ccc(C2=N[C@@H](c3ccc(Cl)cc3)[C@@H](c3ccc(Cl)cc3)N2C(=O)N2CCNC(=O)C2)c(OC(C)C)c1 [Nutlin-3a] | 0.315 | 0.423 | 0.226 | 0.215 |
| CN/C(=N\CCSCc1nc[nH]c1C)NC#N [Cimetidine] | 0.911 | 1.12 | 0.973 | 1.04 |
| NC(=O)c1ccc(I)c([N+](=O)[O-])c1 [Iniparib (BSI-201)] | 1.03 | 1.03 | 0.998 | 1.07 |
| O=C(O)c1cc(/N=N/c2ccc(S(=O)(=O)Nc3ccccn3)cc2)ccc1O [Sulfasalazine] | 0.895 | 1.17 | 0.854 | 1.06 |
| CS(=O)(=O)c1ccc(-c2nnc(/C=C/c3nnc(-c4ccc(C#N)cc4)o3)n2-c2ccccc2Cl)nc1 | 0.928 | 1.16 | 0.693 | 0.769 |
| c1coc(CNc2ncnc3[nH]cnc23)c1 [Kinetin] | 1.01 | 1.01 | 0.361 | 0.431 |
| C[C@]12CCC3=C4CCC(=O)C=C4CC[C@H]3[C@@H]1CC[C@@]2(O)CC#N [Dienogest] | 1.02 | 1.09 | 0.89 | 1.05 |
| CCOC(=O)[C@H](CCc1ccccc1)N[C@@H](C)C(=O)N1C(=O)N(C)C[C@H]1C(=O)O [Imidapril HCl] | 0.976 | 1.1 | 0.958 | 1.17 |
| C[C@@H]1C[C@H]2[C@@H]3CCC4=CC(=O)C=C[C@]4(C)[C@@]3(Cl)[C@@H](O)C[C@]2(C)[C@@]1(OC(=O)c1ccco1)C(=O)CCl [Mometasone furoate] | 0.849 | 0.962 | 0.136 | 0.477 |
| O=c1oc2cc(O)ccc2s1 [Tioxolone] | 0.912 | 1.25 | 0.872 | 1.16 |
| COc1cc2ncnc(Nc3cccc(Cl)c3)c2cc1OC [AG-1478 (Tyrphostin AG-1478)] | 1.49 | 1.16 | 0.0996 | 0.169 |
| CCn1c(-c2nonc2N)nc2c(C#CC(C)(C)O)ncc(OC[C@H]3CCCNC3)c21 | 0.989 | 0.936 | 0.856 | 0.967 |
| O=S(=O)(O)Oc1ccc(C(c2ccc(OS(=O)(=O)O)cc2)c2ccccn2)cc1 [Sodium Picosulfate] | 1.05 | 1.1 | 0.923 | 1.01 |

| SMILES | fractional viability [1] | fractional viability [2] | fractional viability [3] | fractional viability [4] |
| --- | --- | --- | --- | --- |
| CCC[C@H](N[C@H]1CCc2cc(F)cc(F)c2C1)C(=O)Nc1cn(C(C)(C)CNCC(C)(C)C)cn1 | 0.725 | 0.914 | 0.899 | 0.679 |
| CN1C(=O)C(Cc2c[nH]c3ccccc23)NC1=S (stereo unspecified) [Necrostatin-1] | 0.738 | 0.974 | 0.845 | 0.828 |
| Cc1cc2c(s1)Nc1ccccc1N=C2N1CCN(C)CC1 [Olanzapine] | 1.14 | 1.11 | 0.874 | 1.04 |
| Cc1ccc(NC(=O)C2(c3ccc4c(c3)OC(F)(F)O4)CC2)nc1-c1cccc(C(=O)O)c1 [VX-809 (Lumacaftor)] | 0.94 | 1.12 | 0.933 | 1.06 |
| CNC(=O)c1ccc(Nc2ncc(C(F)(F)F)c(NCc3nccnc3N(C)S(C)(=O)=O)n2)cc1 | 0.702 | 0.772 | 0.213 | 0.179 |
| Cn1cc(/C=C2\C(=O)Nc3cccnc32)c2ccccc21 | 1.42 | 1.27 | 0.871 | 0.936 |
| CC(C)OC(=O)C(C)(C)Oc1ccc(C(=O)c2ccc(Cl)cc2)cc1 [Fenofibrate] | 1 | 1 | 0.829 | 0.922 |
| OCCOc1ccc(/C(=C(/CCCl)c2ccccc2)c2ccccc2)cc1 [Ospemifene] | 0.655 | 0.988 | 0.492 | 0.754 |
| CCN1C[C@H](C)n2c(c(O)c3c(=O)n(Cc4ccc(F)c(Cl)c4)nc(C(=O)NC)c32)C1=O | 1.07 | 1.2 | 0.793 | 1.12 |
| CC(=O)c1c(C)c2cnc(Nc3ccc(N4CCNCC4)cn3)nc2n(C2CCCC2)c1=O | 0.736 | 0.864 | 0.6 | 0.445 |
| CNC(=O)c1cc(Oc2ccc3nc(N[C@@H]4CCCC[C@H]4O)sc3c2)ccn1 | 0.703 | 0.812 | 0.744 | 0.659 |
| CC(C)(C)c1ccc(S(=O)(=O)/C=C/C#N)cc1 | 0.119 | 0.091 | 0.0418 | 0.0217 |
| Cc1cn(-c2cc(NC(=O)c3ccc(C)c(Nc4nccc(-c5cccnc5)n4)c3)cc(C(F)(F)F)c2)cn1 [Nilotinib (AMN-107)] | 1.42 | 1.08 | 1.28 | 1.05 |
| NC(=O)c1ccc(-c2nc(-c3ccccn3)c(-c3ccc4c(c3)OCO4)[nH]2)cc1 | 1.32 | 1.08 | 1.16 | 0.957 |
| C[C@@H](O[C@H]1OCCN(Cc2n[nH]c(=O)[nH]2)[C@H]1c1ccc(F)cc1)c1cc(C(F)(F)F)cc(C(F)(F)F)c1 [Aprepitant] | 0.974 | 1.02 | 0.426 | 0.723 |
| CCCNC(=O)Nc1ccc(Oc2ncnc3cc(OC)c(OC)cc23)cc1Cl | 1.08 | 1.12 | 1.07 | 1.06 |
| CCCN(CCC)CCc1cccc2c1CC(=O)N2 [Ropinirole HCl] | 0.814 | 1.09 | 0.765 | 1.1 |
| NC(=O)c1cccc(-c2cccc(OC(=O)NC3CCCCC3)c2)c1 | 1.01 | 1.13 | 0.989 | 1.06 |
| CC(=O)O[C@H]1C(=O)[C@@]2(C)[C@H]([C@H](OC(=O)c3ccccc3)[C@]3(O)C[C@H](OC(=O)[C@H](O)[C@@H](NC(=O)c4ccccc4)c4ccccc4)C(C)=C1C3(C)C)[C@]1(OC(C)=O)CO[C@@H]1C[C@@H]2O [Paclitaxel] | 0.266 | 0.246 | 0.309 | 0.349 |
| CN1CCC(Nc2nc(Nc3ccc(Oc4ccccc4)cc3)c3c(=O)[nH]cc(Br)c3n2)CC1 | 0.131 | 0.279 | 0.0286 | 0.0109 |

| SMILES | fractional viability [1] | fractional viability [2] | fractional viability [3] | fractional viability [4] |
| --- | --- | --- | --- | --- |
| Cn1cnc2c(F)c(Nc3ccc(Br)cc3F)c(C(=O)NOCCO)cc21 | 0.395 | 0.437 | 0.243 | 0.229 |
| C#Cc1cccc(Nc2ncnc3cc(OCCOC)c(OCCO)cc23)c1 | 1.01 | 1.09 | 0.503 | 0.545 |
| CC(C)C[C@H](NC(=O)[C@H](Cc1ccccc1)C[C@@H](O)[C@H](Cc1ccccc1)NC(=O)OC(C)(C)C)C(=O)N[C@@H](Cc1ccccc1)C(N)=O | 0.749 | 0.909 | 0.627 | 0.653 |
| Nc1nc(N)c(N=O)c(OCC2CCCCC2)n1 | 0.823 | 1.12 | 0.544 | 0.681 |
| COc1cc2nc(N3CCCC3)nc(NCCCCCN3CCCC3)c2cc1OC | 0.426 | 0.543 | 0.0312 | 0.0156 |
| NC(=O)c1cnccn1 [Pyrazinamide] | 1.03 | 1.01 | 0.872 | 1.06 |
| CSc1nc2cc(Cl)c(Oc3cccc(Cl)c3Cl)cc2[nH]1 [Triclabendazole] | 1.14 | 1.11 | 0.734 | 0.933 |
| Nc1ccc(-c2ccc3ncc4ccc(=O)n(-c5cccc(C(F)(F)F)c5)c4c3c2)cn1 [Torin 2] | 0.125 | 0.114 | 0.114 | 0.0945 |
| Cc1cnc(-c2ccccc2C(C)C)nc1NCc1ccc(-n2ccnn2)cc1 | 1.11 | 0.946 | 0.849 | 0.679 |
| CCCCCCCCCCCCCCCCn1cc[n+](Cc2ccccc2)c1C | 0.134 | 0.104 | 0.0139 | 0.00629 |
| CC1(C)S[C@@H]2[C@H](NC(=O)[C@H](N)c3ccccc3)C(=O)N2[C@H]1C(=O)O [Ampicillin Trihydrate] | 0.814 | 1.07 | 0.873 | 0.987 |
| CC1(C)S[C@@H]2[C@H](NC(=O)[C@H](N)c3ccccc3)C(=O)N2[C@H]1C(=O)O [Ampicillin sodium] | 1.06 | 1.2 | 0.863 | 1.12 |
| Cc1ccccc1C(C(=O)NC1CCCCC1)N(C(=O)Cn1ccnc1C)c1cccc(F)c1 (stereo unspecified) | 0.86 | 1.02 | 0.801 | 1.01 |
| O=C(O)c1cc(=O)[nH]c(=O)[nH]1 [Orotic acid (6-Carboxyuracil)] | 0.916 | 1.04 | 1.02 | 1.12 |
| O=C(Nc1ccc(S(=O)(=O)Nc2ccccc2Cl)c(Cl)c1)c1ccccn1 | 0.711 | 0.925 | 0.692 | 0.771 |
| Oc1ccc(-c2nc(-c3ccc(F)cc3)c(-c3ccncc3)[nH]2)cc1 | 1.28 | 1.05 | 1.02 | 0.933 |
| Cc1ccc(C(=O)Nc2ccc(CN3CCN(C)CC3)c(C(F)(F)F)c2)cc1C#Cc1cnc2[nH]ncc2c1 | 0.214 | 0.169 | 0.0362 | 0.0116 |
| O=C(NC[C@H](O)CO)c1ccncc1Nc1ccc(I)cc1F | 0.333 | 0.318 | 0.212 | 0.205 |
| Cc1ccc(-n2nc(C(C)(C)C)cc2NC(=O)NCc2cc(F)ccc2Oc2ccc3c(cnn3CCO)c2)cc1 [Pexmetinib (ARRY-614)] | 0.541 | 0.748 | 0.4 | 0.312 |

From the supplement of paper PMC5919970
